# Laboratory results: ChEMBL document CHEMBL1157539, “Thousands of chemical starting points for antimalarial lead identification” (Nature, 2010)
# Whole data set: some 13,000 compounds, median “IFI” near 4, cut for the highest 2% near 17. The list shows a part of the results.
# Experiment: GSK_TCMDC: Inhibition Frequency Index (IFI). The number of non-kinase HTS assays where a compound showed > 50 % inhibition, expressed as a percentage of the number of such assays in which the compound was tested (-0 is zero)
# Type: functional
row,Structure (SMILES),IFI
1,CC1(C)N=C(N)N=C(NOCCCCCCONC2=NC(N)=NC(C)(C)N2)N1,1.44%
2,Cc1onc(-c2ccc(Cl)cc2)c1-c1ccnn1S(=O)(=O)c1ccc(Cl)cc1,0.72%
3,NS(=O)(=O)c1ccc(CNc2ccc3ncc(-c4ccc(OC(F)(F)F)cc4)n3n2)cc1,3.05%
4,CCNc1cc(C(=O)N[C@@H](Cc2ccccc2)[C@H](O)CNCc2cc(OC)cc(OC)c2)cc(N2CCCS2(=O)=O)c1,2.16%
5,Cc1cccc(CC(=N)NCCCCCCNC(=N)Cc2cccc(C)c2)c1,3.73%
6,CC(C)(C)c1ccc(NC(=O)c2ccc(CN3CCCN(Cc4ccsc4)CC3)cc2)cc1,13.8%
7,FC(F)(F)c1ccc2[nH]c(-c3ccc(-c4ccc(CNCCN5CCNCC5)cc4)s3)nc2c1,12.8%
8,COc1ccc(NC(=O)CCNc2cc(C)nc(NCCc3ccc(F)cc3)n2)cc1,4.88%
9,COc1ccc2nccc([C@@H](O)CN3CCC(NC(=O)c4ccc5nc(-n6cccc6)sc5c4)CC3)c2c1,0.74%
10,CN1CCN(Cc2ccc(-c3cccc(-c4nc5ccccc5[nH]4)c3)cc2)CC1,2.88%
11,CCNC(=O)c1ccc2c(c1)c(C)c(C)n2Cc1ccc(F)cc1,4.17%
12,COc1ccc2ncc(Cl)c(CCN3CCC(NCc4ccc5c(n4)NC(=O)CO5)CC3)c2c1,3.68%
13,CC(C)n1cc2c(ccc3nc(N)nc(N)c32)n1,3.52%
14,N#Cc1cc(C(=O)c2cc(Br)ccc2O)cn(C2CCCCC2)c1=O,2.78%
15,O=C(NCCCCN1CCC(c2ccc3c(c2OCCN2CCCC2)CCCC3)CC1)c1ccc(-c2ccc(C(F)(F)F)cc2)cc1,5.45%
16,O=C(NCCc1ccccc1)N(Cc1cccc(-c2ccc(CNCc3ccc4c(c3)OCO4)cc2)c1)C1CCN(Cc2ccccc2)CC1,6.57%
17,Nc1ncc(-c2ccc(F)cc2)cc1-c1nc2ccc(Cl)cc2[nH]1,5.04%
18,COCC(C)n1c(SC(C)C(=O)Nc2cc([N+](=O)[O-])ccc2Cl)nc2ccccc2c1=O (configuration not stated),5.92%
19,CCN(CC)CCNC(=O)c1ccc(NC(=O)c2ccc(-c3cc(NC(=O)CC4CCCC4)ccc3C)cc2)cc1,8.7%

row,Structure (SMILES),IFI
1,O=C(NCCCCCN1CCC(c2c[nH]c3ccccc23)CC1)Nc1cccc(Cl)c1,6.85%
2,Cc1ccccc1C1CCN(C2CCC(NC(=O)/C=C/c3cccc(F)c3)CC2)CC1 (configuration not stated),6.67%
3,CCc1c(CCNCCCCCCNCCc2ccc([N+](=O)[O-])cc2)ccc(OC)c1OC,6.94%
4,Cc1cc(N/N=C/c2ccccc2[N+](=O)[O-])c2cc(F)ccc2n1,-0%
5,O=C(O)c1cc(OCC(O)COc2ccc(O)c(C(=O)O)c2)ccc1O,-0%
6,CCN(CC)CCCNc1ncc2c(-c3ccc(NC(=O)Nc4cc(C(F)(F)F)ccc4F)cc3)nn(C)c2n1,10.8%
7,CC(C)C[C@H](Nc1ccc(C#N)c2ccccc12)C(=O)NC(C)(C)C12CC3CC(CC(C3)C1)C2,0.94%
8,CS(=O)(=O)CCNCc1nc(-c2ccc3ncnc(Nc4ccc(OCc5cccc(F)c5)c(Cl)c4)c3c2)cs1,1.36%
9,NC(=O)c1ccc(NCC(=O)Nc2cccc(-c3cccc(-c4nc5ccccc5[nH]4)c3)c2)cc1,6.6%
10,Cc1ccn2c(C(=O)N3CCN(c4cccc5c4nc(-c4ccoc4)n5Cc4ccccn4)CC3)c(C)nc2c1,1.85%
11,Cc1cccc(CNc2nc(C)cc(NCCC(=O)NCCOc3ccccc3)n2)c1,7.32%
12,O=C(CSc1nccn1C1CCCCC1)Nc1cc(C(F)(F)F)ccc1Cl,1.96%
13,COc1ccc(Cn2cncc2CN(CCC(C)C)C(=O)c2ccc(Cl)nc2Cl)cc1,2.82%
14,Cc1ccc(C2(C)CN(CCCOc3cccc(-c4ccc(C(=O)NC(C)C)cc4)c3)CCO2)cc1 (configuration not stated),7.55%
15,CN(C)CCCNCc1cn(S(=O)(=O)c2ccccc2Cl)c2ccccc12,2.52%
16,CCOc1ccc(-c2nonc2NC(=O)c2ccccc2F)cc1OCC,1.56%
17,Cc1nc(NC(=N)N)nc2ccc(C(C)(C)C)cc12,4.65%
18,CC(O)c1cccc(-c2ccc(Nc3ccnc4cc(-c5nccs5)ccc34)cc2)c1 (configuration not stated),5.19%
19,CC(Cc1ccc(NC(=O)c2ccc(NCCc3ccccc3)cc2)cc1)NCCc1cccc(Cl)c1 (configuration not stated),7.41%

row,Structure (SMILES),IFI
1,Cc1cccc(CNc2nc(C)cc(N[C@@H](Cc3ccccc3)C(=O)NCCOc3ccccc3)n2)c1,17.1%
2,Cc1cccc(Cn2ccc3c4c(N)nc(N)nc4ccc32)c1,2.46%
3,Cc1ccc(F)c(OCC2CCN(c3ccc(C(=O)NC4CC4)cn3)CC2)c1,0%
4,N#Cc1cnc(Nc2ccc(Oc3ccccc3)cc2)nc1Nc1cccc(S(N)(=O)=O)c1,3.01%
5,Cc1ncccc1C(=O)Nc1cccc(-c2cccc(-c3nc4cc(C(F)(F)F)ccc4[nH]3)c2)c1,6.6%
6,O=C1COc2cc(Cl)c(CNC3CCN(CCc4ccnc5c(F)cc(F)cc45)CC3)nc2N1,4.72%
7,Cn1nc(-c2ccc(NC(=O)Nc3cc(C(F)(F)F)ccc3F)c(F)c2)c2cnc(NCCCn3ccnc3)nc21,5.84%
8,COc1ccc(CCn2c(=N)c(C(=O)NCc3ccccc3)cc3c(=O)n4cccc(C)c4nc32)cc1,5.93%
9,CC(=O)N(C)c1ccc(C(=O)Nc2cccc(-c3cccc(-c4nc5cccc(C)c5[nH]4)c3)c2)cc1,2.65%
10,NCCc1cccc(-c2cnc3[nH]cc(-c4ccc(C(=O)O)cc4)c3c2)c1,2.97%
11,O=C(/C=C/c1ccc(Cl)c(Cl)c1)NCCCCCN1CCCN(C(=O)Nc2ccc(F)c(F)c2)CC1,6.67%
12,Cc1nc(C)c(-c2ccc(Oc3cccc(OC(F)(F)F)c3)cc2)c(O)c1Br,6.02%
13,COc1ccc2[nH]cc(C3CCN(CCCCNC(=O)c4ccc(NC(=O)c5ccc(Cl)cc5)cc4)CC3)c2c1,2.26%
14,Oc1c(C(Nc2ccccn2)c2ccc(Cl)cc2Cl)ccc2cccnc12 (configuration not stated),4.64%
15,Cc1c(C)c2c(c(C)c1O)CCC(C)(CCC(=O)O)O2 (configuration not stated),1.52%
16,CC(=O)Nc1ncc(C(=O)Nc2ccc(-c3cccc(-c4nc5cc(C(F)(F)F)ccc5[nH]4)c3)cc2)s1,6.42%
17,CCCC(CC)n1ccc2c3c(N)nc(N)nc3ccc21 (configuration not stated),4.55%
18,O=C(NCCCN1CCCC1=O)NCc1ccccc1,0%
19,COCC(=O)N(Cc1ccccc1-c1cccc(CNCc2ccc3c(c2)OCO3)c1)C1CCN(Cc2ccccc2)CC1,4.93%
